Reference: article PMC4336329 (PLoS ONE, 2015)
The campaign covered roughly 310,000 compounds. About 2,200 (0.71%) showed an effect of 50% or more. The effect is printed as a negative number. The list shows a part of the results.

The compounds below were run against human ether-à-go-go-related gene (hERG) potassium channel (human, UniProt Q12809) (assay: primary screen, population patch clamp on CHO cells stably expressing hERG).
Chain of human ether-à-go-go-related gene (hERG) potassium channel (Q12809 whole entry, looked up): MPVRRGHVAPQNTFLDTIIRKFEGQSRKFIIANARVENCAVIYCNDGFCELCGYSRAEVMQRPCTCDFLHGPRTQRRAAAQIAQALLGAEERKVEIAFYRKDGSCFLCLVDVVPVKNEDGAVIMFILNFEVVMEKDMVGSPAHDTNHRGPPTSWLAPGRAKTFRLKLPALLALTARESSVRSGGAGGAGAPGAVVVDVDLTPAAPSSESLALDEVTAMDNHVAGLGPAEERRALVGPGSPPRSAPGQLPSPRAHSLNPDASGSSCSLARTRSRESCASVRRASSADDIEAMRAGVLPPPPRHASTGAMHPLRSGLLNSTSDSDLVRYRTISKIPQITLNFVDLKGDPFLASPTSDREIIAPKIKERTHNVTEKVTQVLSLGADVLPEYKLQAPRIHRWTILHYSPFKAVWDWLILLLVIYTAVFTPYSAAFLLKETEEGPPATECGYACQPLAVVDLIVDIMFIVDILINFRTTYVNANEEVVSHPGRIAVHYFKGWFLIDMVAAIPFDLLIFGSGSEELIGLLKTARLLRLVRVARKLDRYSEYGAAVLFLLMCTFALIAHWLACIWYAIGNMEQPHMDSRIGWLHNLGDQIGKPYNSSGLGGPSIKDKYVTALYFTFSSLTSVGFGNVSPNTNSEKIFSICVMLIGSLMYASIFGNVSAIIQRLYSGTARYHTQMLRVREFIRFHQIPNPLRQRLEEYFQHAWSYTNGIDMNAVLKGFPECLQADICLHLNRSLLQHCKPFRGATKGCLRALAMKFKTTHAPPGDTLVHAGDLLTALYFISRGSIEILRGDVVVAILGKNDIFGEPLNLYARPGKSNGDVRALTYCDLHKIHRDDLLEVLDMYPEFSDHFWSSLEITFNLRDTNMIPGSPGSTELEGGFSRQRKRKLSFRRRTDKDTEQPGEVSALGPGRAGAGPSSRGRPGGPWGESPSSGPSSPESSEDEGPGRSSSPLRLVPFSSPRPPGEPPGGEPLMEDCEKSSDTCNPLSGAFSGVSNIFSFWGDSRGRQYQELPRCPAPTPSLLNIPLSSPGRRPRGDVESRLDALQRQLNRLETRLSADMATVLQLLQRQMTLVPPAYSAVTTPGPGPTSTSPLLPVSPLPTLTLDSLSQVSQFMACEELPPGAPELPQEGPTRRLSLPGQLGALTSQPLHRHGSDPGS

Row | Compound | hERG current change (%, negative = inhibition) at 1uM [%]
1 | COc1cccc(CC2(CO)CCN(Cc3cnc(N4CCOCC4)s3)CC2)c1 | -6.59
2 | CCN(c1ccccc1)S(=O)(=O)c1ccc(OC)c(N=N/C(C(=O)Nc2ccccc2)=C(/C)O)c1 | 1.23
3 | Cc1cccc([C@@H]2[C@@H]3C(=O)N(Cc4ccccc4)C(=O)[C@@H]3[C@]3(Cc4ccc(Cl)cc4)C(=O)N(c4ccccc4)C(=O)N23)c1 | -4.04
4 | CC(=O)Nc1ccc(NS(=O)(=O)c2ccccc2)cc1 | 13.5
5 | O=C(CSc1nnc(NCc2ccccc2)s1)c1ccco1 | -12.9
6 | CCOC(=O)C1CCCN(C(=O)c2cc3nc(-c4cccc(OC)c4)cc(C(F)(F)F)n3n2)C1 (stereo not shown) | -7.07
7 | Cc1cccc(-c2nnc(SCC(=O)c3ccc(O)cc3O)n2C)c1 | 10.4
8 | O=C(Nc1ncccn1)C1CCCCC1 | 1.38
9 | COC(=O)C1=C(c2ccccc2OCc2ccccc2)C[C@@H]2CC[C@H]1N2C(=O)NCc1cccc(C(F)(F)F)c1 | 11.7
10 | Cc1ccc(NC(=O)CN(C)C(=O)CNC(=O)c2ccc3c(c2)OCO3)cc1 | 11.7
11 | Clc1ccc(SCCOCCN2CCCCCC2)cc1.O=C(O)C(=O)O | -20.6
12 | COc1ccc(C(=O)NCc2ccccc2)cc1Br | 15.3
13 | OCc1nc2c(ccc3ccccc32)[nH]1 | 4.76
14 | CCc1nnc(NC(=O)CSc2nnc(COc3ccc(C#N)cc3)n2-c2ccccc2)s1 | 5.24
15 | CCCCN(C(=O)CSc1nnnn1C)C1CCS(=O)(=O)C1 (stereo not shown) | -5.57
16 | S=C1NCN(Cc2cccnc2)CN1c1cccc2ccccc12 | 10.5
17 | CC(CN1CCCC1)OC(=O)Cc1ccc(Cl)cc1.Cl (stereo not shown) | 14.7
18 | Br.CN(C)C1=NCC(CSC(=N)N)S1 (stereo not shown) | 10.2
19 | O=C(N/N=C/c1ccc[nH]1)c1ccccc1OCc1ccc(F)cc1 | 6.82
20 | Cc1ccc(S(=O)(=O)/N=C2\C(=O)c3ccccc3C([O-])=C2n2cc[n+](CCC(C)C)c2)cc1 | 4.3
21 | COc1cccc(CNc2ccc(S(N)(=O)=O)cc2)c1OC | 2.06
22 | Cc1ccc(S(=O)(=O)C2(C(=O)Nc3ccc(Br)cc3)CC2)cc1 | -1.46

Row | Compound | hERG current change (%, negative = inhibition) at 1uM [%]
23 | COc1ccc(Br)cc1/C=N/NC(=O)c1ccc(COc2ccc3c(c2)CCC3)o1 | 19.2
24 | Cc1ccc(C)c(NC(=S)NC(=O)c2cncc(Br)c2)c1 | 9.09
25 | COc1cccc(NC(=O)C2CC(=O)n3cnnc3S2)c1 (stereo not shown) | 10.4
26 | N#CC1=C(N)OC2=C(C(=O)CC(c3ccccc3)C2)C1c1ccoc1 (stereo not shown) | 5.48
27 | O=C(NNC(=O)c1cccnc1SCc1cccc([N+](=O)[O-])c1)c1ccc(F)cc1 | 0.193
28 | CCOc1ccc(CCNC(=O)COC(=O)COc2ccc(Br)cc2)cc1OCC | 3.21
29 | O=C(NCc1ccccn1)C1CCN(S(=O)(=O)c2ccccc2)CC1 | 17
30 | O=C(CN(c1ccccc1)S(=O)(=O)c1ccccc1)NCCSc1ccccn1 | 18.8
31 | Cc1ccc(/C=C/C(=O)OCC(=O)N(CC(C)C)c2c(N)n(Cc3ccccc3)c(=O)[nH]c2=O)o1 | 15.4
32 | COc1ccc(/C=N/Nc2ncc(C(F)(F)F)cc2Cl)c(OC)c1OC | 7.6
33 | CC1(C)CC(=O)C=C(CN2C(=O)c3ccccc3C2=O)C1=O | 15.5
34 | Cn1cc(CN2CCCC(CO)C2)c(-c2ccc(Oc3ccccc3)cc2)n1 (stereo not shown) | 0.915
35 | CCC(C(=O)N1CCOCC1)n1nc(C)n2c(cc3cc(C)ccc32)c1=O (stereo not shown) | 6.73
36 | CC(C(=O)OCC(=O)Nc1ncc(Cl)cc1Cl)N1C(=O)c2ccccc2C1=O (stereo not shown) | 3.54
37 | CC1CCN(S(=O)(=O)c2ccc3c(c2)oc(=O)n3C)CC1 | 20.4
38 | O=C(NC(=S)Nc1ccc(N2CCOCC2)cc1)c1ccco1 | 14.5
39 | Cc1cc(-n2cccn2)ccc1CN1CCN(CC(C)C)C(CCO)C1 (stereo not shown) | 0.354
40 | CN1CCN(Cc2coc3c(Cl)cc(Cl)cc3c2=O)CC1.O=C(O)C(=O)O | 13.6
41 | CCN(CC)CCCNc1oc(-c2ccc(OC)c(OC)c2)nc1C#N | -17.5
42 | CCN(CC)S(=O)(=O)c1ccc(C(=O)Nc2cccc(C)c2)cc1 | 3.67
43 | COc1ccc(OC)c(CNC(=O)CCNC(=O)Cn2ccc3ccccc3c2=O)c1 | 5.43
